# Data published in publication PMC4336329 (PLoS ONE, 2015).
# The whole screen tested about 310,000 compounds, of which about 2,200 (0.71%) showed an effect of 50% or more. The effect is printed as a negative number. This is one part of the list.
# Biological target: human ether-à-go-go-related gene (hERG) potassium channel (human, UniProt Q12809)
# Experiment: primary screen, population patch clamp on CHO cells stably expressing hERG
# human ether-à-go-go-related gene (hERG) potassium channel, sequence (Q12809 whole entry, looked up): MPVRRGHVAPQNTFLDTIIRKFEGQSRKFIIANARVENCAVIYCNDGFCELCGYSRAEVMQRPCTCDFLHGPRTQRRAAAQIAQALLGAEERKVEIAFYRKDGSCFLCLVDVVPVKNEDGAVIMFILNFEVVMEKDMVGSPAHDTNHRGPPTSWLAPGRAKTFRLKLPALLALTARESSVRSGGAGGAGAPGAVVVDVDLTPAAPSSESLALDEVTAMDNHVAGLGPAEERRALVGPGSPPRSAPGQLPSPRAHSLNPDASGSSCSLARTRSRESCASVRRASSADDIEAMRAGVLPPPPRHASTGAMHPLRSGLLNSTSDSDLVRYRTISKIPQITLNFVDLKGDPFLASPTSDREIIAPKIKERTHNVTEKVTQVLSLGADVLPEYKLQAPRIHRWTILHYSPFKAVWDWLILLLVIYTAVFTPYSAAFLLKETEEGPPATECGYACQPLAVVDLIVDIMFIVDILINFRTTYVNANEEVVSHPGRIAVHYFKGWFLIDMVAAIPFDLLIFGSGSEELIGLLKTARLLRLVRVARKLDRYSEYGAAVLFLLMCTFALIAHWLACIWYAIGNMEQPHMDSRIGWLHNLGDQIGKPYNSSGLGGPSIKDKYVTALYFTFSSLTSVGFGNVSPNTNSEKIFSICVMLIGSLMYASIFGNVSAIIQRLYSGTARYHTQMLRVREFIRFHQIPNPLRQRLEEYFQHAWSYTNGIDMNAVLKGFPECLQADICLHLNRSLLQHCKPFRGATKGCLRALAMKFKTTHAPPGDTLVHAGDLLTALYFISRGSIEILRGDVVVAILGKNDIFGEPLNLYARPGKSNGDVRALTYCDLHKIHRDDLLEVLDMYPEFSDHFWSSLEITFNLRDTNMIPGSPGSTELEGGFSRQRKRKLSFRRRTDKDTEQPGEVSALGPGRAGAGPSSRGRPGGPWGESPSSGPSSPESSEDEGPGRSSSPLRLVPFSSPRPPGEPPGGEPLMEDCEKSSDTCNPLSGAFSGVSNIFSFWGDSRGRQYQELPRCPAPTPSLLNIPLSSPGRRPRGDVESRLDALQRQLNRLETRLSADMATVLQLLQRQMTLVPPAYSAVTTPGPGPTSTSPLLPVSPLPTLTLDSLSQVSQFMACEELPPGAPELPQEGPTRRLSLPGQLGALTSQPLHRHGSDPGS
row,SMILES,"hERG current change (%, negative = inhibition) at 1uM [%]"
1,CCOc1ccc(CN(C)C(=O)[C@H](C)NC(=O)c2ccco2)cc1OC,11
2,C=CCn1c(=NC(=O)C2COc3ccccc3O2)sc2cc(S(N)(=O)=O)ccc21 (stereo not shown),11.9
3,Cc1ccc(S(=O)(=O)Nc2cccc3cccnc23)cc1,-7.95
4,N#Cc1c(N2CCCCC2)nc(N)c2c(N)nc3c(c12)CC(CCl)O3 (stereo not shown),2.32
5,Cn1c(O)c(C(=N)COc2ccccc2)c(=O)n(C)c1=O,-7.09
6,CN1CCCN(Cc2ccccc2C(F)(F)F)CC1,14.8
7,CCCN(C(=O)CSc1nc2c(cnn2-c2ccccc2)c(=O)[nH]1)C1CCS(=O)(=O)C1 (stereo not shown),7.76
8,Cc1cccc2cc(CN(Cc3nnnn3Cc3ccccc3)C3CCCC3)c(=O)[nH]c12,-2.4
9,CC(C)(C)c1cc(C(=O)Nc2ccccc2)ccn1,11.7
10,COc1ccc(C(=O)Nc2ncc3c(n2)CC(C)CC3=O)cc1 (stereo not shown),4.21
11,CC(C)CC(C(=O)NC1CCCC1)N(Cc1cccs1)C(=O)c1snc(C(N)=O)c1N (stereo not shown),-1.1
12,CS(=O)(=O)c1ccc2nc(NC(=O)CCN3C(=O)c4ccccc4C3=O)sc2c1,12.4
13,Cc1nc(SCC(=O)c2ccc(F)c(F)c2)[nH]c(=O)c1Oc1ccc(F)cc1,6.03
14,COC/C=C/C1=CC2=CC(=O)C(C)(OC(=O)c3cnc4ccccc4n3)C(=O)C2=CN1Cc1ccc(OC)cc1 (stereo not shown),8.93
15,Cc1cccc(OCC(=O)N(Cc2cccs2)C2CCS(=O)(=O)C2)c1 (stereo not shown),-4.8
16,Cc1ccc(S(=O)(=O)n2c([N+](=O)[O-])cnc2C)cc1C,6.98
17,Cc1ccc(NC(=O)CCCn2c(=O)oc3ccccc32)c(O)c1,-4.64
18,CSc1ccccc1NC(=O)CSc1nncs1,15.2
19,O=C(CN1CCN(S(=O)(=O)c2ccc3ccccc3c2)CC1)NC(=O)NC1CCCCC1,10.7
20,O=C(Nc1ccc2c(c1)OCO2)[C@@H]1CCCN1S(=O)(=O)c1cccc2cccnc12,14
21,O=c1c2c(O)cc(O)cc2oc2ccc(O)c(O[C@@H]3O[C@H](CO)[C@@H](O)[C@H](O)[C@H]3O[C@H]3O[C@H](CO)[C@@H](O)[C@H](O)[C@H]3O)c12,12.1
22,Cc1ccc(C)c(OCC(=O)Nc2ccc(C(=O)O)cc2NC(=O)COc2cc(C)ccc2C)c1,10.8

row,SMILES,"hERG current change (%, negative = inhibition) at 1uM [%]"
1,CC(C)NC(=S)N/N=C/c1ccc(N2CCOCC2)cc1,11
2,COc1ccc(NC(=O)c2ccc(-c3ccccc3C(F)(F)F)o2)cc1,-1.26
3,Cc1cc(C)n(-c2nc(N(C)C)nc(N3CCOCC3)n2)n1,2.1
4,Cc1ccc(OCCNC(=O)CCc2ccccc2)cc1C,3.29
5,Cl.O=[N+]([O-])c1ccc(N2CCN(Cc3ccccc3)CC2)nc1,-5.67
6,COc1ccc(CNc2ccc(C(=O)O)cc2)cc1,13.5
7,CCOC(=O)CSc1nnc([C@H](C)NC(=O)OC(C)(C)C)o1,0.92
8,O=C(CN(C(=O)CCC(=O)Nc1nccs1)C1CCCC1)NCc1ccc2c(c1)OCO2,7.56
9,CN(CC(=O)Nc1ccc(Cl)c(Cl)c1)C(=O)CC1OC(=O)c2ccccc21 (stereo not shown),-11.9
10,Fc1ccccc1COc1ccc(C(=S)N2CCCC2)cc1,10
11,COc1ccc(/C=C2/SC(=O)N(CCC(=O)Nc3ccccc3C(=O)O)C2=S)cc1,7.34
12,COc1cc(Cl)c(C)cc1NC(=O)CSc1nnc(-c2ccco2)n1CC(C)C,-6.76
13,O=C(NNC(=O)c1cccs1)c1ccc(F)cc1,19.6
14,OCCC1CN(Cc2cccn2-c2ncccn2)CCN1CCc1ccccc1 (stereo not shown),-44.6
15,CCn1c(-c2cc(-c3cccc(OC)c3)nc3ccccc23)n[nH]c1=S,4.82
16,Cc1ccc(NC2CCCN(C(=O)c3snnc3C)C2)cc1C (stereo not shown),13.4
17,CC1(C(=O)NC(=S)N(CCC#N)c2ccccc2)CC1(Cl)Cl (stereo not shown),-4.43
18,CCOC(=O)N1CCN(Cc2nc3c(c(=O)[nH]c(=O)n3C)n2Cc2cc(C)ccc2C)CC1,7.12
19,COC(=O)c1nnn(-c2ccccc2)c1N,-7.63
20,O=C(c1cccc([N+](=O)[O-])c1)N1CCOCC1,12.7
21,C[C@@H](CN1C2=NC[C@H](Cc3ccc(O)cc3)N2C[C@H]1Cc1ccc(O)cc1)NC(=O)CCC1CCCCC1,12.5
